Laboratory results as given in PubChem BioAssay (Tox21).
Calls of active or inactive are those of the source. Unless noted, the call rests on the fitted dose curve; in most records, active means well fitted curve in the direction sought with a large enough effect in the repeat runs; inconclusive means weak or mixed curves; inactive means no such curve, though single readings can be large; an effect the other way counts as inactive or inconclusive.

Columns and labels:
[1] = qHTS assay for small molecule agonists of the p53 signaling pathway (AID 651631; calls by dose curve; further: potency means the concentration at half of the fitted maximal effect; nearly all actives have a fitted effect of over 15% in size); settings: HCT-116 p53RE-bla reporter, beta-lactamase FRET ratio, 16 h; activation: at 73.3 µM (top of the series) unless noted
Method in brief: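 Testing took place in human colorectal HCT-116 cells with stable p53RE-driven beta-lactamase. After 16 h of compound exposure at 37 °C, a FRET substrate was added and fluorescence recorded 2 h later.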

[2] = qHTS assay for small molecules that induce genotoxicity in human embryonic kidney cells expressing luciferase-tagged ATAD5 - cell viability (AID 651634; calls by dose curve; further: potency means the concentration at half of the fitted maximal effect; nearly all actives have a fitted effect of over 25% in size)
Method in brief: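 Cytotoxicity counterscreen in HEK293T cells bearing an ATAD5-luciferase reporter: live-cell protease activity measured by CellTiter-Fluor fluorescence after 15.5 hr compound exposure.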

[3] = qHTS assay for small molecule disruptors of the mitochondrial membrane potential (AID 720635); settings: HepG2 mitochondrial membrane potential, Mito-MPS dye ratio; ratio activity, negative = MMP loss: at 83.2 µM (top of the series) unless noted; further: potency means the concentration at half of the fitted maximal effect; on ratio activity, negative = MMP loss: on the % scale 0 is the no-effect control and ±100 the full control effect
Method in brief: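 HepG2 cells (2,000/well) attached overnight at 37C, then took compound for 1 hr at 37C, 5% CO2. Mito-MPS dye was added for 30 min; fluorescence was read at 490/535 nm (monomers) and 540/590 nm (aggregates).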

[4] = target: Glucocorticoid receptor (Homo sapiens) (UniProt P04150); assay: qHTS assay to identify small molecule antagonists of the glucocorticoid receptor (GR) signaling pathway (AID 720692; active means well fitted inhibition curve with a large enough effect in the signal ratio in the repeat runs, not every such curve was filed as active; inconclusive means weak or mixed curves, or effect the other way; inactive means no such curve, though single readings can be large or run the other way; the % refers to the signal ratio; further: on the % scale 0 is the no-effect control and ±100 the full control effect); settings: GR-bla HeLa, beta-lactamase FRET ratio, dexamethasone-stimulated, 18 h; activity change, negative = inhibition: at 58.5 µM (top of the series) unless noted
Chain of UniProt P04150 (P04150 whole entry, looked up): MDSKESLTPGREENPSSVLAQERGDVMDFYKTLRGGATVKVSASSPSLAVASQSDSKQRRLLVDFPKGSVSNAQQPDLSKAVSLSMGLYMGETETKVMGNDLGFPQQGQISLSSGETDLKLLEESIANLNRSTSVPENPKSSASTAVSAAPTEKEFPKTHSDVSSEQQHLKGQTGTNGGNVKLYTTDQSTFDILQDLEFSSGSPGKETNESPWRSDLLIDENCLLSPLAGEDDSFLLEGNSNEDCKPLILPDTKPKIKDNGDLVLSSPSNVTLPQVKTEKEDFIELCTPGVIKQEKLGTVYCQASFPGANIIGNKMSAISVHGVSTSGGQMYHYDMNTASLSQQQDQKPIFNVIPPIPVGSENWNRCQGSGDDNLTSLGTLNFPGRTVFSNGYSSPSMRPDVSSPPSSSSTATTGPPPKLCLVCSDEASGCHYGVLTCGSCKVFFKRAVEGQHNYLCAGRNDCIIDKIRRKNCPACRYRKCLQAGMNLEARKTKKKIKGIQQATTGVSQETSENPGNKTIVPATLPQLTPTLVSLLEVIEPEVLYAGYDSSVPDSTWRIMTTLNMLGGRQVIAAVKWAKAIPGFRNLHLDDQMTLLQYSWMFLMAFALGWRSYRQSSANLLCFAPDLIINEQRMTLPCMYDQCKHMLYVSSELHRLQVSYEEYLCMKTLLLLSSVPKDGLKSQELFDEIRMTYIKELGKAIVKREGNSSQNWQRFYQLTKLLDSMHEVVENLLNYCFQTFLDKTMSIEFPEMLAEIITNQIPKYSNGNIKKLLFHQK
Method in brief: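 Cells plated, rested 4 h at 37 C/5% CO2; compounds in DMSO pin-transferred; dexamethasone added to 5 nM final; 18 h at 37 C; B/G FRET substrate added, 2 h room temperature; fluorescence measured.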

[5] = qHTS assay to identify small molecule antagonists of the glucocorticoid receptor (GR) signaling pathway - cell viability counter screen (AID 720693); settings: GR-bla HeLa viability, CellTiter-Glo luminescence, 18 h, with 5 nM dexamethasone present; viability change, negative = cytotoxic: at 58.5 µM (top of the series); further: nearly all actives have a fitted effect of over 55% in size; further: potency means the concentration at half of the fitted maximal effect; on viability change, negative = cytotoxic: on the % scale 0 is the no-effect control and ±100 the full control effect
[6] = qHTS assay to identify small molecule antagonists of the androgen receptor (AR) signaling pathway using the MDA cell line - cell viability counter screen (AID 743041; further: potency means the concentration at half of the fitted maximal effect; nearly all actives have a fitted effect of over 45% in size); settings: MDA-kb2 viability, CellTiter-Fluor, 16 h, cells co-treated with R1881 androgen agonist; viability change, negative = cytotoxic: at 70.3 µM (top of the series)
Method in brief: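 MDA-kb2 AR-luc human breast carcinoma cells (MMTV-luciferase, AR/GR responsive) were treated with compounds plus R1881 agonist for 16 h at 37 °C. Viability was read as CellTiter-Fluor fluorescence in the same wells as the reporter assay.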

[7] = test system: thyroid hormone receptor (rat, GH3 cells); assay: qHTS assay to identify small molecule agonists of the thyroid receptor (TR) signaling pathway (AID 743066; calls by dose curve; further: on the % scale 0 is the no-effect control and ±100 the full control effect); settings: GH3.TRE-Luc cells, TR agonist luciferase, 24 h; activation: at 83.9 µM (top of the series) unless noted
[8] = target: Estrogen receptor (Homo sapiens) (UniProt P03372); assay: qHTS assay to identify small molecule antagonists of the estrogen receptor alpha (ER-alpha) signaling pathway (AID 743069; active means well fitted curve in the direction sought with a large enough effect in the signal ratio in the repeat runs, not every such curve was filed as active; inconclusive means weak or mixed curves, or effect the other way; inactive means no such curve, though single readings can be large or run the other way; the % refers to the signal ratio; further: potency means the concentration at half of the fitted maximal effect); settings: HEK293 ER-alpha-UAS-bla, beta-lactamase ratio, antagonist mode; activity, negative = inhibition: at 69.4 µM (top of the series) unless noted
Chain of UniProt P03372 (P03372 whole entry, looked up): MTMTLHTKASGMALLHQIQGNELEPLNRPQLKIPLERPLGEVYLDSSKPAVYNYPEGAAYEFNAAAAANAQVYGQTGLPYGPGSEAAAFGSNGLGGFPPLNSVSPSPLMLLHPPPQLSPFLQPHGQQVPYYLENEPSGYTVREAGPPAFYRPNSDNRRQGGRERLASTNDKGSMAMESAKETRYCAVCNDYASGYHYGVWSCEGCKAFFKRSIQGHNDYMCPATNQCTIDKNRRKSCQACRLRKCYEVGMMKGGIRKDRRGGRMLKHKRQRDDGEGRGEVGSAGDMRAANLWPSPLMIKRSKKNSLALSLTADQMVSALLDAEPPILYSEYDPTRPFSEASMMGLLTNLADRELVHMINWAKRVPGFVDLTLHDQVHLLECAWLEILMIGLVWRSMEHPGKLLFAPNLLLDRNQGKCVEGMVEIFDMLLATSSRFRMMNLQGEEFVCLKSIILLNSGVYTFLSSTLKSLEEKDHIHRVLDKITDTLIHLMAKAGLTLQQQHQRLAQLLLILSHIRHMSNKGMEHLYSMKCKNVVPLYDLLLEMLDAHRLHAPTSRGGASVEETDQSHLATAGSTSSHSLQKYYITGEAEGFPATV
Method in brief: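 HEK293 cells stably carrying an ER-alpha-UAS-bla beta-lactamase reporter were pre-cultured overnight in 2% charcoal-stripped FBS medium. Test compounds in DMSO were added together with 17beta-estradiol for 18 hr at 37C. Read-out was fluorescence after 2 hr with LiveBLAzer B/G FRET substrate at room temperature.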

[9] = target: Estrogen receptor (Homo sapiens) (UniProt P03372); assay: qHTS assay to identify small molecule agonists of the estrogen receptor alpha (ER-alpha) signaling pathway using the BG1 cell line (AID 743079); settings: BG1Luc4E2 cells, ERE-luciferase agonist, 22 h; activation: at 70.3 µM (top of the series) unless noted; further: potency means the concentration at half of the fitted maximal effect; nearly all actives have a fitted effect of over 20% in size
[10] = qHTS assay to identify small molecule antagonists of the estrogen receptor alpha (ER-alpha) signaling pathway using the BG1 cell line (AID 743080; calls by dose curve;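 further: BG1 cells stimulated with 17beta-estradiol alongside compound; potency means the concentration at half of the fitted maximal effect; nearly all actives have a fitted effect of over 25% in size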); settings: BG1Luc4E2 ERE-luciferase antagonist mode, luminescence; activity change, negative = inhibition: at 70.3 µM (top of the series) unless noted
Method in brief: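 Luciferase inhibition measured with ONE-Glo after 30 min at RT in BG1Luc4E2 cells given test compounds and 17beta-estradiol for 21.5 h at 37 C; CellTiter-Fluor viability read in the same wells beforehand.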

[11] = qHTS assay to identify small molecule antagonists of the estrogen receptor alpha (ER-alpha) signaling pathway using the BG1 cell line - cell viability counter screen (AID 743081); settings: BG1Luc4E2 viability, CellTiter-Fluor, 22 h; activity change, negative = cytotoxicity: at 70.3 µM (top of the series) unless noted;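 further: compound given together with 17beta-estradiol as the ER stimulus; potency means the concentration at half of the fitted maximal effect; nearly all actives have a fitted effect of over 45% in size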
[12] = qHTS assay to identify aromatase inhibitors - cell viability counter screen (AID 743084); settings: MCF-7 aro ERE viability, CellTiter-Fluor, 24 h; activity change, negative = cytotoxicity: at 70.3 µM (top of the series) unless noted;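 further: cells stimulated with testosterone during compound exposure; potency means the concentration at half of the fitted maximal effect; nearly all actives have a fitted effect of over 55% in size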
[13] = target: Aryl hydrocarbon receptor (Homo sapiens) (UniProt P35869); assay: qHTS assay to identify small molecule that activate the aryl hydrocarbon receptor (AhR) signaling pathway (AID 743085); further: potency means the concentration at half of the fitted maximal effect; nearly all actives have a fitted effect of over 15% in size
Chain of UniProt P35869 (P35869 whole entry, looked up): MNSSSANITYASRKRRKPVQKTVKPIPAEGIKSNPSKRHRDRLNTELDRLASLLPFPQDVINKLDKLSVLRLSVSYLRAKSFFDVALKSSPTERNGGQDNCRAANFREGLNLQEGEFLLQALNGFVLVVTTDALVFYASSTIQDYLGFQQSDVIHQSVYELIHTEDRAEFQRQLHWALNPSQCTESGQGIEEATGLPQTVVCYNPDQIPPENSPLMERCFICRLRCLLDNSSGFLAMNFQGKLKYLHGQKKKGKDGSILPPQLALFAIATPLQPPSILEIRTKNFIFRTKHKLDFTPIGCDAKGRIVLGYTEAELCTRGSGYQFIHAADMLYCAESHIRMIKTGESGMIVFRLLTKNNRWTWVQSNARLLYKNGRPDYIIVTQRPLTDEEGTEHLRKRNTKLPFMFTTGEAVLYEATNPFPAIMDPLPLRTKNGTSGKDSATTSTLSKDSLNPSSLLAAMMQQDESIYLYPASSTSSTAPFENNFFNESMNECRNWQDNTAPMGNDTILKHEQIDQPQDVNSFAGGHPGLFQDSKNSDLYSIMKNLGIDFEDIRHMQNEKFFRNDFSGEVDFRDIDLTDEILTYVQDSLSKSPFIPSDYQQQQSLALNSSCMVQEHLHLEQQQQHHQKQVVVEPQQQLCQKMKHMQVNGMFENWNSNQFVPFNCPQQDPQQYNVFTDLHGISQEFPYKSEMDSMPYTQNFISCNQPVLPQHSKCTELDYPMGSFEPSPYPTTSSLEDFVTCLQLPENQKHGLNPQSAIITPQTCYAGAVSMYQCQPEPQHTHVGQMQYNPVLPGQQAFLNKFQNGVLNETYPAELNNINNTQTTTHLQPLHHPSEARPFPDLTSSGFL
Method in brief: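 A multiplexed format paired cell viability (CellTiter-Fluor fluorescence) with AhR-dependent luciferase output (ONE-Glo luminescence) in the same wells of HepG2 DRE-luc cells after 24 h compound exposure at 37C.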

[14] = qHTS assay to identify small molecule that activate the aryl hydrocarbon receptor (AhR) signaling pathway - cell viability counter screen (AID 743086); further: potency means the concentration at half of the fitted maximal effect; nearly all actives have a fitted effect of over 45% in size
Method in brief: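 HepG2-AhR-luc (HG2L7.5c1) cells, 4000/well, were preincubated 5 h at 37C, exposed to compound in qHTS format for 24 hr at 37C, then given CellTiter-Fluor for 30 min; viability was read as fluorescence in the reporter wells.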

[15] = target: Peroxisome proliferator-activated receptor gamma (Homo sapiens) (UniProt P37231); assay: qHTS assay to identify small molecule agonists of the peroxisome proliferator-activated receptor gamma (PPARg) signaling pathway (AID 743094; active means well fitted activation curve with a large enough effect in the signal ratio in the repeat runs, not every such curve was filed as active; inconclusive means weak or mixed curves, or effect the other way; inactive means no such curve, though single readings can be large or run the other way; the % refers to the signal ratio; further: potency means the concentration at half of the fitted maximal effect); settings: HEK293H PPARg-UAS-bla, beta-lactamase FRET ratio, 17 h; activation: at 57 µM (top of the series) unless noted
Chain of UniProt P37231 (P37231 whole entry, looked up): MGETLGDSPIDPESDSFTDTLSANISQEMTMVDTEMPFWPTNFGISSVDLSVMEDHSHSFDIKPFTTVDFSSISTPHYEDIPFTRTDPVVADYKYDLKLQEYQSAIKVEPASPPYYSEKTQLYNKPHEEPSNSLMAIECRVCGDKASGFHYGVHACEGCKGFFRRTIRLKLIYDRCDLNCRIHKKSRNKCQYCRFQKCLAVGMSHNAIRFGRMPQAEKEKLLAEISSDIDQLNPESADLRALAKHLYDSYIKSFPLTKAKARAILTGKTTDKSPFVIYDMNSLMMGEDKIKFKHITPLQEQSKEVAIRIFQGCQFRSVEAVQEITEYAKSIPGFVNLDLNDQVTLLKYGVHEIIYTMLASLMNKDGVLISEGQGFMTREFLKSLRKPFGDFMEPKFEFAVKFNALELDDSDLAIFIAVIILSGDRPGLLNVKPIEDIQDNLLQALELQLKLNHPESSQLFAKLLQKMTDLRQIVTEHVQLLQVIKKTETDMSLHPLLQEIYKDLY
Method in brief: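 Quantitative HTS agonist mode: stable HEK293H line with UAS-beta-lactamase reporter under PPARg control, 17 h compound exposure at 37C, fluorescence after 1 h FRET substrate loading at room temperature.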

[16] = target: Nuclear receptor subfamily 1 group I member 2 (Rattus norvegicus) (UniProt Q9R1A7); assay: Rat pregnane X receptor (rPXR) activation by small molecules, qHTS assay (AID 1346983); settings: rPXR luciferase reporter cells, One-Glo luminescence, 24 h; max activation: stronger effect = higher value; further: potency means the concentration at half of the fitted maximal effect; nearly all actives have a fitted effect of over 20% in size
Chain of UniProt Q9R1A7 (Q9R1A7 whole entry, looked up): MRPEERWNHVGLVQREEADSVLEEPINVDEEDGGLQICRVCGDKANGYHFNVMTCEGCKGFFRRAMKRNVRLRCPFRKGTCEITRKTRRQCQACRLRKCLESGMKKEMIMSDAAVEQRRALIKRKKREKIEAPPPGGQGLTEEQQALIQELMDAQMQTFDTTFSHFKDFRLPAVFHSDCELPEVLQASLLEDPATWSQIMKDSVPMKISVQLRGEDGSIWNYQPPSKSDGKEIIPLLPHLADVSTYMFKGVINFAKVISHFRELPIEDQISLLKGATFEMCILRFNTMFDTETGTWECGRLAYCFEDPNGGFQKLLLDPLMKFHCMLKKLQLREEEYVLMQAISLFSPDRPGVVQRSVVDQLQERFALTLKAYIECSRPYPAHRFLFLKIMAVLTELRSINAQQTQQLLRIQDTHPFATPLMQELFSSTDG
Method in brief: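 Cell-based rPXR luciferase reporter assay, 2,000 cells per well, rested 5hr at 37 C before compound addition in DMSO, then 24 hr at 37 C. One-Glo reagent was added and luminescence read after 30 min at room temperature.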

[17] = qHTS assay for identifying genotoxic compounds that show differential cytotoxicity against isogenic chicken DT40 cell lines with known DNA damage response pathways - wild type cell line (AID 743012); settings: DT40 wild type chicken cells viability, CellTiter-Glo, 40 h; activity change, negative = cytotoxicity: at 68.4 µM (top of the series) unless noted; further: potency means the concentration at half of the fitted maximal effect; nearly all actives have a fitted effect of over 60% in size
Method in brief: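 Cells (DT40 wild type, 300/well) are treated with DMSO-dissolved compounds after a ~0.5 h pre-incubation and kept 40 h at 37 C/5% CO2. Viability is then measured by CellTiter-Glo luminescence following 30 min at room temperature.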

[18] = qHTS assay for identifying genotoxic compounds that show differential cytotoxicity against isogenic chicken DT40 cell lines with known DNA damage response pathways - Rad54/Ku70 mutant cell line (AID 743015); settings: DT40 Rad54/Ku70 mutant viability, CellTiter-Glo, 40 h; activity change, negative = cytotoxicity: at 66.8 µM (top of the series) unless noted; further: potency means the concentration at half of the fitted maximal effect; nearly all actives have a fitted effect of over 60% in size
[19] = qHTS assay to identify small molecule antagonists of the thyroid receptor (TR) signaling pathway - cell viability counter screen (AID 743064); settings: GH3.TRE-Luc viability, CellTiter-Fluor, 24 h; activity change, negative = cytotoxic: at 70.3 µM (top of the series) unless noted; further: potency means the concentration at half of the fitted maximal effect; nearly all actives have a fitted effect of over 50% in size
Method in brief: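 Viability of T3-stimulated (1 nM final) GH3.TRE-Luc cells is measured by CellTiter-Fluor fluorescence after 23.5 h compound exposure at 37 °C plus 30 min reagent incubation.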

[20] = target: Nuclear receptor subfamily 1 group I member 2 (Homo sapiens) (UniProt O75469); assay: CYP3A4 induction through human pregnane X receptor (PXR) by small molecules, qHTS assay (AID 1346984); settings: DPX-2 HepG2 PXR, CYP3A4-luciferin luminescence, 24 h; activation: at 46.1 µM (top of the series) unless noted; further: potency means the concentration at half of the fitted maximal effect; nearly all actives have a fitted effect of over 40% in size
Method in brief: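 Steps: seed DPX-2 cells, 5 hr at 37C; pin-transfer compounds; 24 hr at 37C; add Luciferin-IPA (3uM final), 3 hr at 37C; add One-Glo, 30 min RT; read luminescence.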

[21] = target: Nuclear receptor subfamily 1 group I member 2 (Homo sapiens) (UniProt O75469); assay: Human pregnane X receptor (PXR) activation by small molecules, qHTS assay (AID 1346985); further: potency means the concentration at half of the fitted maximal effect; nearly all actives have a fitted effect of over 40% in size
Method in brief: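 DPX-2 cells (HepG2 co-transfected with a PXR response element and a CYP3A4-promoter luciferase construct) were seeded at 2,000 per well, rested 5 hr at 37C, then exposed to DMSO-dissolved compounds for 24 hr. Activation was read as luciferase luminescence.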

[22] = qHTS assay for small molecules that induce genotoxicity in human embryonic kidney cells expressing luciferase-tagged ATAD5 (AID 651632); further: potency means the concentration at half of the fitted maximal effect; nearly all actives have a fitted effect of over 15% in size
Method in brief: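 Increased luciferase signal from ATAD5-tagged reporter cells indicates DNA-damage-driven ATAD5 induction. HEK293T cells are treated for 16 hr at 37C before detection with Amplite.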

[23] = qHTS assay to identify small molecule antagonists of the estrogen receptor alpha (ER-alpha) signaling pathway - cell viability counter screen (AID 743074; calls by dose curve; further: on the % scale 0 is the no-effect control and ±100 the full control effect; nearly all actives have a fitted effect of over 45% in size)
Tags describe the fitted curve by direction and shape or compound fluorescence and quenching.

CC[C@@]1(O)C(=O)OCc2c1cc1n(c2=O)Cc2cc3c([N+](=O)[O-])cccc3nc2-1
active: Potency [1] 0.473 µM | Potency [8] 4.77 µM [inconclusive] | Potency [10] 0.266 µM | Potency [16] 6.31 µM
inactive: Potency [7]
inconclusive: Potency [2] 13.3 µM [falling, partial curve, poor fit] | Potency [3] 13.9 µM [inhibitor, partial curve] | activity change, negative = inhibition [4] -30.4% | Potency [5] 3.01 µM [cytotoxic, full curve] | Potency [6] 3.35 µM [cytotoxic, full curve] | Potency [9] 0.0668 µM [inhibitor, full curve] | Potency [11] 7.5 µM [cytotoxic, full curve] | Potency [12] 2.37 µM [cytotoxic, full curve] | Potency [13] 4.22 µM [activator, full curve, poor fit] | Potency [14] 0.422 µM [falling, full curve] | Potency [15] 2.13 µM [rising, full curve, poor fit]

CN1CCN2c3ncccc3Cc3ccccc3C2C1 (stereo unspecified)
active: Potency [20] 15.8 µM
inconclusive: Potency [1] 13.3 µM [fluorescent, partial curve] | Potency [17] 26.6 µM [cytotoxic] | Potency [18] 29.8 µM [cytotoxic, partial curve, poor fit] | Potency [19] 11.9 µM [cytotoxic, partial curve] | Potency [21] 22.4 µM [activator, single point]

CC1CCC(NC(=O)N(CCCl)N=O)CC1 (stereo unspecified)
inactive: Potency [3] | Potency [5] | Potency [23]
inconclusive: Potency [22] 29.8 µM [activator, partial curve, poor fit] | Potency [10] 10.6 µM [rising, full curve] | Potency [13] 10.6 µM [activator, partial curve] | Potency [21] 11.2 µM [activator, single point]
active: Potency [9] 26.6 µM | Potency [16] 5.01 µM
